The structures appear in SMILES notation. Over roughly 13,000 compounds, “IFI” has its median near 4; the highest 2% begin near 17. This is one part of the list.

The test in a line: GSK_TCMDC: Inhibition Frequency Index (IFI). The number of non-kinase HTS assays where a compound showed > 50 % inhibition, expressed as a percentage of the number of such assays in which the compound was tested (-0 is zero). It is filed as functional.
For `CCN(CC)S(=O)(=O)c1ccc(CCOCCCCCNCC(O)c2cc(Cl)c(N)c(Cl)c2)s1` (stereo not given), the IFI is 14.8%.

As to `OCC1CCN(Cc2cccc(C#Cc3cc4ncnc(Nc5ccc(OCc6cccc(F)c6)c(Cl)c5)c4s3)n2)CC1`, the IFI turned out to be 6.3%.

In turn, `COc1cccc(C=Cc2nc(=O)c3ccccc3o2)c1OC` registered an IFI of 1.5%.

On to `O=C(Nc1ccc2c(c1)CCC2)c1ccc(N2CCN(c3ccncc3)CC2)cn1`, for which the IFI was 13%.

As to `CC(ON1C(N)=NC(N)=NC1(C)C)c1ccccc1` (stereo not given), the IFI amounted to 2.14%.

`CCNc1cc(C(=O)NC(Cc2ccccc2)C(O)CNC(C)(C)CCCC(C)C)c(F)c(N2CCCS2(=O)=O)c1` (stereo not given): the IFI amounted to 2.16%.

Compound `O=C(Nc1ccc(-c2ccccc2)cc1)Nc1cccc(Cn2cnc(N3CCCNCC3)cc2=O)c1` registered an IFI of 3.6%.

`O=C(/C=C/c1ccc(Cl)c(Cl)c1)N1CCC(CN2CCC(Cc3cc4ccccc4[nH]3)CC2)CC1` returned an IFI of 11.4%.

With `Clc1cccc(C=NNc2nc(=Nc3ccccc3)[nH]c(=Nc3ccccc3)[nH]2)c1`, the IFI was determined as 1.46%.

For `N#Cc1ccc(NC(=O)Nc2ccc(OC(F)(F)F)cc2)cc1`, the IFI was 20.5%.

`CN(Cc1cccc(O)c1)C1CCN(c2cc(NC(=O)c3ccc(F)cc3)ccn2)C1` (stereo not given): the IFI is 2.63%.

Compound `CCCc1ccc(NC(=O)c2ccc(CN3CCCN(Cc4cccc(O)c4)CC3)cc2)cc1` came in with an IFI of 13.8%.

As to `Cc1ccc(C)c2sc(N(CCCn3ccnc3)C(=O)c3ccco3)nc12`, the IFI came out at 6.12%.

As for `CC(=O)Nc1cccc(NC(=O)CSc2ccc(-c3nc4ccccc4[nH]3)cn2)c1`, the IFI came out at 5%.

Compound `O=C(c1cc2c(s1)-c1cccc(Cl)c1SC2)N1CCN(c2ccncc2)CC1` registered an IFI of 6.82%.

As to `CNC(=O)C1Cc2c([nH]c3c(C)cccc23)C2(N1)C(=O)Nc1ccc(OC(F)(F)F)cc12` (stereo not given), the IFI was determined as 0.75%.

`O=C(O)/C=C/c1cccc(F)c1F` gave an IFI of 2.16%.

The compound `COc1cc(Cc2cnc(N)nc2N)cc(OCCCC#N)c1OC` showed an IFI of 0.75%.

With `O=[N+]([O-])c1cccc(CNCC2CCN(Cc3ccc(O)cc3)CC2)c1`, the IFI is -0%.

With `CCOc1c(CNCCCNc2cc(O)c3ccccc3n2)cc(I)cc1OC`, the IFI is 3.55%.

The compound `Cc1nc(Cl)c2c(-c3ccccc3)csc2n1` had an IFI of 3.57%.

Take `CN1CCN(c2ccc(Nc3ccnc4ccc(-c5ccccc5)cc34)cc2)CC1`: the IFI came out at 6.43%.

`COc1ccc2nccc([C@@H](O)CN3CCC(NC(=O)C(=O)c4c[nH]c5c(C)cccc45)CC3)c2c1`: the IFI is 3.73%.

`CN(C)CCOc1ccc(-n2c(-c3nonc3N)nc3cncc(-c4ccc(F)cc4)c32)cc1`: the IFI worked out at 3.55%.

Compound `N#CCOc1c(C2CCN(CCCCNC(=O)c3ccc(-c4ccc(C(F)(F)F)cc4)cc3)CC2)ccc2c1CCCC2` gave an IFI of 7.08%.

Consider `COc1ccc2cc(-c3nc(-c4c(Cl)cccc4Cl)[nH]c3-c3ccnc(NCCC4CCCN4C)c3)ccc2c1` (stereo not given), for which the IFI worked out at 11.3%.

In the case of `O=C(Nc1ccc(Cl)cc1)c1ccc(CN2CCCN(Cc3cccc(O)c3)CC2)cc1`, the IFI is 11%.

Consider `COc1ccc(-c2cc(C(F)(F)F)n3ncc(C(=O)Nc4cc(C)ccc4O)c3n2)cc1OC`, for which the IFI was 1.44%.

The compound `CCCCN(Cc1cc(Cl)c(OCC)c(OC)c1)c1ccc(C(O)(C(F)(F)F)C(F)(F)F)cc1` came in with an IFI of 6.38%.

Turning to `OCCN1CCN(Cc2cccc(-c3ccc(-c4nc5cc(C(F)(F)F)ccc5[nH]4)cc3)c2)CC1`, the IFI is 6.8%.

For the compound `CC(=O)N(Cc1nc(-c2cc(C(F)(F)F)cc(C(F)(F)F)c2)cs1)c1c(C)cccc1C`, the IFI stood at 0.69%.

`Cc1nc2nc(N)nc(N)c2c(C)c1Cc1ccc(C(N)=O)cc1`: the IFI turned out to be 0.73%.

For `COc1ccc(-c2cnc3ccc(NCc4ccc(F)cc4)nn23)cc1OC`, the IFI was found to be 7.81%.

Consider `COc1cccc2cc(C(=O)N[C@@H](CC(C)C)C(=O)Nc3cc(F)ccc3Br)oc12`, for which the IFI was 1.79%.

As for `O=C(Nc1ccc(Cl)cc1)OCCn1nnnc1C(c1ccc(Cl)cc1)N1CCOCC1` (stereo not given), the IFI amounted to 1.46%.

For `Cc1ccc(S(=O)(=O)NC2CCN(c3ccnc4cc(Cl)ccc34)C2)cc1` (stereo not given), the IFI came out at 4.55%.

As for `OC(CNCc1ccco1)Cn1c2ccc(Br)cc2c2cc(Br)ccc21` (stereo not given), the IFI turned out to be 4.26%.

Consider `O=C(Nc1cccc(-c2nn3ccccc3c2-c2ccnc(Nc3ccc(-c4cc[nH]n4)cc3)n2)c1)c1c(F)cccc1F`, for which the IFI is 7.81%.

The compound `COc1ccc2nccc([C@@H](O)CN3CCC(NC(=O)C(c4cc5ccccc5s4)N4CC(C)OC(C)C4)CC3)c2c1` (stereo not given in full) yielded an IFI of -0%.

Consider `CCN(CC)CCCN(C(=O)c1cc2c(C)nn(-c3ccccc3)c2s1)c1nc(-c2ccc(OC)cc2)cs1`, for which the IFI was 3.41%.

On to `Oc1ccc(CCNc2nc(NCCCOc3cccc(-c4ccccc4)c3)nc(N3CCNCC3)n2)cc1`, for which the IFI was determined as 18.8%.

As for `CN(C)Cc1ccc2cc(NC(=O)c3ccc(-c4ccc(Cl)cc4)cc3)ccc2c1`, the IFI amounted to 6.45%.

Regarding `O=C(Nc1ccc2c(c1)CCC2)c1ccc(CN2CCCN(Cc3cccc(O)c3)CC2)cc1`, the IFI came to 10.3%.

On to `COc1ccc(-c2ccc(CNCc3ccc(F)cc3)cc2)cc1S(=O)(=O)NCCN1CCCC1`, for which the IFI was determined as 7%.

Turning to `O=C(NC1CCN(Cc2ccc3c(c2)OCCO3)CC1)c1ccc(-c2cccc(C(F)(F)F)c2)s1`, the IFI is 22%.

As for `CCCCCN1C(=O)N(c2ccc(Cl)c(Cl)c2)C(N(O)C(=O)Nc2ccc(Cl)c(Cl)c2)C1(C)C` (stereo not given), the IFI stood at 6.06%.

Compound `O=C(/C=C/c1ccc(Cl)c(Cl)c1)NCCCCCN1CCCN(C(=O)Nc2ccc(F)c(Cl)c2)CC1` returned an IFI of 6.04%.

With `Nc1ncc(-c2ccc3[nH]ccc3c2)c2ccc(-c3ccncc3)cc12`, the IFI was found to be 9.09%.

As to `O=C(NCCCCN1CCC(c2ccc(OC(F)(F)F)cc2)CC1)c1ccc(NC(=O)c2ccc(Cl)cc2)cc1`, the IFI turned out to be 1.52%.

`COc1cccc(Nc2nnc(SCC(=O)NNC(=O)c3ccccn3)s2)c1` gave an IFI of 4.76%.

Turning to `Oc1ccccc1CN1CCC2(CCCN(Cc3ccccc3F)C2)C1` (stereo not given), the IFI is 4.65%.

`CCCCCC(=O)N1CCOC(CCN2CCc3c(c4ccccc4n3C)C2)(c2ccc(Cl)c(Cl)c2)C1` (stereo not given): the IFI came out at 3.57%.

The compound `Clc1ccc(CNCC2CCN(CC3CCCCC3)CC2)cc1Cl` showed an IFI of 0.69%.

Compound `COc1ccc(Nc2cc(C)nc(Nc3ccc(NC(C)=O)cc3)n2)cc1` yielded an IFI of 5.88%.

Compound `CN(C)CCOc1ccc(NC(=O)NC(C)(C)c2nc(-c3ccc(Cl)c(O)c3)c(-c3ccncc3)[nH]2)cc1` displayed an IFI of 2.21%.

`N#Cc1ccc2c(c1)CCN(CCC1CCC(NC(=O)c3cc4cccc([N+](=O)[O-])c4[nH]3)CC1)C2` (stereo not given) returned an IFI of -0%.

In turn, `Cc1ccc(NC(=O)c2ccc3nccnc3c2)cc1OC1CCN(Cc2ccc(F)cc2)CC1` showed an IFI of 1.64%.

The compound `COc1cccc(CNC(=O)c2cccc(-c3cccc(CN4CCC(N5CCCC5)CC4)c3)n2)c1` gave an IFI of 9.8%.

`COc1ccc(-c2cccc(NC(=O)c3cccc(C#N)c3)c2)cc1CN1CCCC1` showed an IFI of 4%.

In the case of `O=S(=O)(c1ccc(OCc2ccc(Cl)cc2)cc1)c1cc2c(cc1O)CCN(C1CCC1)CC2`, the IFI is 7.52%.

`CC(C)(C)c1ccc(-c2nnc(N)nc2N)cc1` gave an IFI of 0.78%.

`COc1cccc(CCNCc2ccc(-c3cccc(CNC4CCCC4)c3)cc2)c1`: the IFI came out at 2.78%.

The compound `Cc1[nH]c(C)c(-c2ccc(-c3cccc(Cl)c3)nc2)c(=O)c1Br` showed an IFI of 1.82%.

In turn, `O=C(Nc1ccc(Br)cc1)c1cc(Br)ccc1NS(=O)(=O)c1ccc(C(F)(F)F)cc1` returned an IFI of 25%.

`Cc1cc(C)c(NC(=O)N[C@H]2CCN(CCCCCNC(=O)/C=C/c3ccc(Cl)c(Cl)c3)C2)c(C)c1` registered an IFI of 2.08%.

For the compound `Cc1nc2nc(N)nc(N)c2c(C)c1Cc1ccccc1Br`, the IFI is 2.26%.

`CN1C(C)(C)CC(NC(=O)c2ccc(-c3nc4cc(Cl)ccc4[nH]3)cc2)CC1(C)C` yielded an IFI of 0.71%.

The compound `O=C(/C=C/c1ccc(Cl)c(Cl)c1)NCCCCCN1CCC(CCCNC(=O)Nc2ccc(C(F)(F)F)cc2)CC1` showed an IFI of 8.57%.

Turning to `CCC(Cc1ccccc1)c1cc(O)c(Cc2ccc(-c3ccccc3)cc2)c(=O)o1` (stereo not given), the IFI worked out at 4.38%.

The compound `CN1CCN(c2cc3c(cc2Cl)CCN3C(=O)Cc2ccc(NC(=O)Nc3cccc4ccccc34)cc2)CC1` came in with an IFI of 8.45%.

Regarding `COc1ccc(C=C2SC(=O)N=C2Nc2ccccc2)c(OC)c1`, the IFI amounted to 4.11%.

With `Cc1cc(C2CCN(CCCCNC(=O)c3ccc(-c4ccc(C#N)cc4)cc3)CC2)c(C)cc1O`, the IFI was determined as 3.67%.

On to `Cn1cncc1CNCc1ccc(-c2cccc(-c3nc4ccccc4[nH]3)c2)cc1`, for which the IFI was 2.91%.

Turning to `O=C(N[C@H]1CCN(Cc2ccc(OCCCN3CCCCC3)cc2)C1)c1ccc2ccccc2c1`, the IFI is 5.48%.

In the case of `CCc1ccc(CN2CCC(NC(=O)c3ccc(-c4ccc(N(C)C)cc4)s3)CC2)cc1`, the IFI turned out to be 12.3%.

`CCc1cn(CCc2ccccc2)c2ccc(C(=O)N[C@@H](Cc3ccccc3)[C@H](O)CNC(C)(C)CCCC(C)C)cc12` showed an IFI of 8.7%.

With `COc1ccc2c(OC)c(CNCCCCCCNCc3ccc4cc(OC)ccc4c3OC)ccc2c1`, the IFI was determined as 11.3%.

As for `O=C(CNCC1CCCCC1)Nc1cc(C(F)(F)F)ccc1Cl`, the IFI worked out at 4.23%.

`OCC(c1ccccc1)n1c(COc2ccc(Cl)cc2)nc2c(OCCCN3CCCCC3)cccc21` (stereo not given): the IFI was 3.67%.

In the case of `O=C(NC1CCCCN(Cc2ccccc2O)C1)c1cccc(C(F)(F)F)c1` (stereo not given), the IFI stood at 2.05%.

`O=C(Nc1ccc2c(c1)CN(Cc1ccc(N3CCCC3)o1)CCC2)c1ccoc1`: the IFI turned out to be 2.5%.

Regarding `CC(C)CN1C(=O)C(c2ccc(F)c(F)c2)=C(O)C1c1ccccc1` (stereo not given), the IFI worked out at 0.69%.

In the case of `CC(=O)Nc1cccc(Nc2nccc(Nc3ccc(Oc4ccccc4)cc3)n2)c1`, the IFI came out at 4.96%.

As to `CN(C)CCNC(=O)N1CCCN(c2ncnc3cc(-c4ccc(Cl)cc4)sc23)CC1`, the IFI was 7.27%.

`O=C(NCCCCN1CCC(c2ccc3c(c2OCC2CC2)CCCC3)CC1)c1ccc(NC(=O)c2ccc(Cl)cc2)cc1` showed an IFI of 5.07%.

Regarding `COc1ccc(C2CC(c3cccs3)=NN2C(=O)CNc2cccc(C#N)c2)cc1OC` (stereo not given), the IFI is -0%.

`CCn1cc(-c2nc(-c3cc(OC)cc(OC)c3)no2)c(=O)c2ccccc21` showed an IFI of 4.35%.

For `CCCCc1ccc(-c2ccc3[nH]c(C)c(Br)c(=O)c3c2)cc1`, the IFI turned out to be 0.89%.

In turn, `O=C(/C=C/c1ccc(Cl)c(Cl)c1)NCCCCCN1CCC(NC(=O)Nc2ccc(Oc3ccccc3)cc2)C1` (stereo not given) yielded an IFI of 11.3%.

For `Cc1nc(Nc2ccc(F)cc2)nc(N2CCc3ccccc3[C@@H]2C)c1C`, the IFI was 3.7%.

Source of the values: ChEMBL document CHEMBL1157539, “Thousands of chemical starting points for antimalarial lead identification” (Nature, 2010).
